B1: LINE1-mini (parent)
chain: GGCAGAGCUCAACACAGCGUGGCAAAGUGGCUGUGGCUAGACUGCC

Read counts are not given, so values of variants with three or more changes are uncertain.

The variants in this data set derive from B1. Put plainly: self-cleavage, relative activity (ratio to wild type); higher = more cleavage; in vitro, sequencing; the parent is a self-cleaving ribozyme.
As to G1A C13U C45U, the self-cleavage was found to be 0.11. As for G1A C3A G5C G7A U9A C45U C46G, the figure is 0.99; as for G1A G21U G27A, 0.78. As to G1A G19U G33A, the self-cleavage worked out at 0.1.

Consider G1A C8A G33A, for which the self-cleavage was found to be 0.27. With G1A C8U A39G, the self-cleavage was 0.06. As for G1A G2A A14U C23U, the figure is 0.19; as for G1A G21A G30A U34C G36U, 0.12; as for G1A G5A A16U G17U, 0.12. As for G1A C13G U20A G27U, the figure is 0.08; as for G1A G7U A26G, 0.07; as for G1A G5U A14U C15G G17A U20G G22A, 0.04. As for G1A C8G U20C C23U G40U, the figure is 0.05; as for G1A C3G A4G A11G G40U C42G, 0.02; as for G1A C18G G27C G36C, 0.13. As to G1A G22C C37G, the self-cleavage came to 0.53. As for G1A C42G G44C, the figure is 0; as for G1A C8G G33A C37U, 0.22; as for G1A G22A G33U G36C C46A, 0.03. As for G1A C8A C18G G22C G33U G40A C46A, the figure is 0.13. For the variant G1A G2A C23U G30C U34C G36A C37G, the self-cleavage was 0.21. As for G1A G5U C23A C42U G44U, the figure is 0.15; as for G1A C18U G22C C31U, 0.03; as for G1A G22U U32A C37G A39U, 0.01. As for G1A A24U C37A, the figure is 0.11. As for G1A C3G A6G, the figure is 0.5. With G1A C31G U32G, the self-cleavage is 0.16. As for G1A A25C A26G G36U C42G, the figure is 0.04; as for G1A C8G U28C G40U, 0.08.

Turning to G1A C18G A26C, the self-cleavage came to 0.14. As for G1A G2A C8A A16U G35C, the figure is 0.25; as for G1A G21A A26C, 2; as for G1A G17A G29U, 0.05. As for G1A C10A G19A, the figure is 0.07; as for G1A G7U U9C C10A C18G G29U C45G, 0.03. As for G1A G17A U28A, the figure is 0.04; as for G1A G2A U34A, 0.26. For the variant G1A G5A G22A G27U, the self-cleavage came out at 0.18.

Regarding G1A C31U A39C, the self-cleavage was 0.01.

On to G1A C10A C15A, for which the self-cleavage is 0.09. As for G1A G17C C37A C42G C46U, the figure is 0.03; as for G1A C3G C18G G29C G40U, 0.15; as for G1A G2U U9G C15U U28C G36A G40C, 0.03. As for G1A A24G A41U, the figure is 0.33; as for G1A C42A C45A, 0.39. As for G1A A25G G36U, the figure is 0.03; as for G1A C8A C42A, 0.44; as for G1A C10U C31U C37U, 0.04. Take G1A C3U C8U C10A C18A A41C: the self-cleavage stood at 0.74.

For G1A G17A U32A, the self-cleavage amounted to 0.06. As for G1A C3A C42U, the figure is 0.9. As for G1A C31A U32G G35A, the figure is 0.06. Regarding G1A C15U G29U U34G, the self-cleavage was 0.08. As for G1A G2A A11G C15A, the figure is 0.04; as for G1A C3G C15U C46A, 0.25; as for G1A G17C C23U, 0.09. As for G1A G19A C37U G40U, the figure is 0.14; as for G1A A24U G27U U38G U43A, 0.03. As for G1A G7A C46U, the figure is 0.47. As to G1A G2A A4U C8A U9G C45A, the self-cleavage turned out to be 1.52. As for G1A C8U G36A, the figure is 0.91; as for G1A A24G A25U A39U, 0.1; as for G1A A41C G44A, 0.07.

On to G1A A24C A41C, for which the self-cleavage amounted to 0.03.

G1A C10G C23U: the self-cleavage came to 1.12. Consider G1A G5A A16U C18U G21A, for which the self-cleavage is 0.04. Turning to G1A G2A C18A G33U C37A, the self-cleavage is 0.28. As for G1A G22C C23A, the figure is 2.31. For G1A G21C U28G U34A, the self-cleavage amounted to 1.2. As for G1A A24C A39U, the figure is 0.04; as for G1A C8A C13A G22A U43C, 0.22; as for G1A C3G G21A G22C C23U U43G G44U, 0.04. As for G1A G2C C3G A11G C18A U34G C37U A39G, the figure is 0.01; as for G1A C18A A39U G40U A41C, 0.04.

Turning to G1A C13A G27U U34G, the self-cleavage came out at 0.04. On to G1A C3A C10A G19A U28G G35A, for which the self-cleavage was 0.33. Consider G1A C10A A25U G29C G33A A41C, for which the self-cleavage was determined as 0.01. As to G1A G19A U20C G21U G33C C37U G44C, the self-cleavage came out at 0.01. As for G1A C15G U34C, the figure is 0.08; as for G1A G7U A25G G30U C31A, 0.38; as for G1A G2A U38C A41U, 0.72.

With G1A G19U U34C C37A, the self-cleavage was 0.09. As for G1A C15G G21C G27U C37A G44U, the figure is 0.01; as for G1A C18A G36A G40A, 0.23. As for G1A C15U G17A C31G U38C, the figure is 0.03.

On to G1A C3U C8G, for which the self-cleavage came out at 2.33. As for G1A C8G G17U U32G U38C G44A C46G, the figure is 0.15; as for G1A G5A C15A G17U U28G G29A, 0.05. Turning to G1A C3G G40C U43C, the self-cleavage came to 0.18.

On to G1A A16U G40U, for which the self-cleavage is 0.03.

Regarding G1A G19U U20A G30U C45G, the self-cleavage was 0.09.

As to G1A G5A C46U, the self-cleavage was 0.24. As for G1A G5U G19U U34A, the figure is 0.03. As for G1A G17A G21A G33U G35C, the figure is 0.04. As for G1A C15U A24C G44U C45G, the figure is 0.07; as for G1A C15U C23A A25U, 0.81; as for G1A C18A G35C C37G, 0.05. For the variant G1A C3A A24U, the self-cleavage came to 0.47. As for G1A G19C C42G, the figure is 0.02; as for G1A C3A G30U G35C G40C, 0.36. As for G1A G17U U28A C31G, the figure is 0.14. As for G1A G17U G19U U38G, the figure is 0.05; as for G1A G5C C18G G19A A24U A39G, 0.03.

As to G1A C3U U20A C37U C46A, the self-cleavage was 0.21. Consider G1A C10G A12G, for which the self-cleavage came to 0.01. Turning to G1A G2C A4U C15A C45A C46G, the self-cleavage was 0.14. As for G1A G19U C42A, the figure is 0.07; as for G1A G2A U38A, 1.01; as for G1A G19A C23G G36C, 0.09. As for G1A G5U G7U A11C G17C, the figure is 0.03. Take G1A C8U G19U G40C: the self-cleavage stood at 0.11.

In the case of G1A G2C C31A, the self-cleavage was 0.23.

Turning to G1A G2A C10A G17A U34G, the self-cleavage was found to be 0.06. As for G1A C3A G22U A25C G33U, the figure is 1.14. As for G1A G22A A26U U38A G44U, the figure is 0.05; as for G1A G2U G7U C23A A25U G29C, 0.02. As for G1A G2C A25G, the figure is 0.02; as for G1A G2A A12U G29U, 2.07. Turning to G1A G17A G44A, the self-cleavage was determined as 0.05. As for G1A C10U G21C A25C, the figure is 1.39. As to G1A C8G C46G, the self-cleavage stood at 0.07.

Regarding G1A C10A G22U G30C A39C, the self-cleavage was determined as 0.04. As for G1A C3G C18A G19A, the figure is 0.49; as for G1A A26G G33A, 0.06; as for G1A G19A C23A U34G A39C C46U, 0.02. As for G1A C15G G36U, the figure is 0.03. As for G1A C15G G36C, the figure is 0.09; as for G1A G21A A25G G33C A41U, 0.04. Take G1A G7C C18U G22U U32A: the self-cleavage is 0.1. Take G1A C8G A26U G30A: the self-cleavage was found to be 0.53. As for G1A C10A U38A C42U, the figure is 0.06; as for G1A C10A C13A U20C G33A A39G, 0.02; as for G1A G27A C31A G36A C42A, 0.04. As for G1A C8U C46A, the figure is 0.84.

On to G1A A24G G29U U32A, for which the self-cleavage is 0.09.

In the case of G1A C3G A6U A14U U32C A39G C45U, the self-cleavage stood at 0.11.

G1A C8G C18U U32C C37U: the self-cleavage turned out to be 0.01. Take G1A C15A G29A G44U: the self-cleavage is 0.01. As for G1A G21U A39U C45G, the figure is 0.39; as for G1A G7A A26G, 0.34; as for G1A C3U A24C U32A, 0.16. As for G1A G17U C45U, the figure is 0.06; as for G1A G17C G29A, 0.18. As for G1A G2A A14G U20G G27C G29C A41G, the figure is 0.03; as for G1A C18U G19C, 0.11. As for G1A C13A G17U U43G C46A, the self-cleavage was found to be 0.05. G1A C3U G7A C10G G33U C42U C46A: the self-cleavage was 0.06. As for G1A C10A C13U G19A G21A G29U, the figure is 0.1; as for G1A G5C C13U G19C A25U, 0.06.

Turning to G1A C13U A26C, the self-cleavage was 0.7.

For G1A G2A G17U A39C C42G, the self-cleavage was 0.05. As for G1A C10A C18U, the figure is 0.05; as for G1A C18A G19U A39U, 0.08; as for G1A C8A G22A, 0.44. Turning to G1A C18A G19A C45A, the self-cleavage was determined as 0.08. On to G1A C8G G17A A25U U28A, for which the self-cleavage stood at 0.03.

As for G1A G2C G33U A39U, the self-cleavage came to 0.07.

Regarding G1A C3G U20G A24C A39C G44U, the self-cleavage worked out at 0.12.

On to G1A C8G G22U G35C G36U, for which the self-cleavage came to 0.49. As for G1A G21U G35U A39U, the figure is 0.1. With G1A G2U C8A G19A U28G U43C, the self-cleavage worked out at 0.07. As for G1A C18U G27U, the figure is 0.15; as for G1A C18A G27A, 0.3.

As for G1A C3G G5A U9A, the self-cleavage was determined as 2.88.

As for G1A C23G U34C G35C C37A, the self-cleavage was 0.02. As for G1A C23U G44U, the figure is 0.26; as for G1A G17U A25U C37U G44C, 0.03.

Source of the values: the RNAGym collection of RNA variant scans (doi:10.7554/elife.90254).
